# Measured values taken from the BET-seq Pho4 binding data (Le et al. 2018).
# The other results are listed elsewhere or left out. The energies were worked out here from pooled read counts, against the library average; single values are noisy.
# Target: T1, Pho4 (S. cerevisiae) (UniProt P07270)
# T1 sequence: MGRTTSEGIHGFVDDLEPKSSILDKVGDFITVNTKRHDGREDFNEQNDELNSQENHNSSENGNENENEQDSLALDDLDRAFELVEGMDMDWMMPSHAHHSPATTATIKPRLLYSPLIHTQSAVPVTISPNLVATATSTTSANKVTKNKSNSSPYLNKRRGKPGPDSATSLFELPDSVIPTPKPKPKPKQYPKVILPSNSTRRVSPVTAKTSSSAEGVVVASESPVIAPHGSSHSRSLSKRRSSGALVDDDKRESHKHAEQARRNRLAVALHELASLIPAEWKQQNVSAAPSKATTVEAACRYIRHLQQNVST
# Assay: relative binding free energy (BET-seq); higher = weaker binding
# Conditions: reference: library average
row,Sequence,relative binding free energy
1,TGTATCACGTGATGCT,0.15 kcal/mol
2,TGCGACACGTGTTGTT,0.01 kcal/mol
3,CTTGGCACGTGTTAGC,0.02 kcal/mol
4,AGTGTCACGTGATTGC,0.07 kcal/mol
5,TAGATCACGTGGTATC,0.09 kcal/mol
6,TGTTACACGTGTTTGC,0.13 kcal/mol
7,AGTAACACGTGGCGTG,-0.12 kcal/mol
8,AGAGTCACGTGATGTG,0.21 kcal/mol
9,TGGGGCACGTGCATCG,-0.29 kcal/mol
10,ATGTGCACGTGGGCGA,-0.15 kcal/mol
11,CTGTACACGTGTGTTA,0.08 kcal/mol
12,GGTAGCACGTGAGGTA,0.19 kcal/mol
13,GGCATCACGTGTGGCG,0.13 kcal/mol
14,TGTGACACGTGCGTTT,-0.09 kcal/mol
15,CAAGTCACGTGGTGAT,0.19 kcal/mol
16,TAAAGCACGTGTTAAG,-0.01 kcal/mol
17,TTTGGCACGTGCTTCG,-0.26 kcal/mol
18,ATCGCCACGTGTGGGT,0.01 kcal/mol
19,GTCGTCACGTGTGAAG,0.08 kcal/mol
20,AGGATCACGTGGGGTT,0.02 kcal/mol
21,TGGTACACGTGGTCGT,-0.03 kcal/mol
22,TGTGTCACGTGTCTAG,0.08 kcal/mol
23,TCCTGCACGTGTGTTT,0.05 kcal/mol

row,Sequence,relative binding free energy
1,GGCGCCACGTGTGGTA,-0.07 kcal/mol
2,TTGGGCACGTGATATA,0 kcal/mol
3,AGGGTCACGTGGCTGA,-0.02 kcal/mol
4,TTTTACACGTGAGTAG,0.13 kcal/mol
5,TTGTCCACGTGTGTCG,-0.03 kcal/mol
6,TGAAGCACGTGGGGCA,-0.21 kcal/mol
7,TTGATCACGTGAGGAG,0.25 kcal/mol
8,TAGGGCACGTGGTATA,-0.21 kcal/mol
9,GTATTCACGTGTCTTT,0.12 kcal/mol
10,CAATTCACGTGGATAT,0.47 kcal/mol
11,GGTCGCACGTGGGACG,-0.08 kcal/mol
12,GAGGCCACGTGGGGTA,-0.05 kcal/mol
13,TACTCCACGTGTTGTG,0.12 kcal/mol
14,TTTCTCACGTGGATTT,0.21 kcal/mol
15,GGGTACACGTGGCTCG,0.04 kcal/mol
16,GGGATCACGTGGGTCA,-0.09 kcal/mol
17,TTCGGCACGTGGGCAT,-0.4 kcal/mol
18,CGGGACACGTGGGGGG,-0.1 kcal/mol
19,CGGAGCACGTGAAGGG,0 kcal/mol
20,GTCTGCACGTGATCGG,0.14 kcal/mol
21,TAGTTCACGTGGTACG,0.16 kcal/mol
22,ATCGGCACGTGACGGG,-0.07 kcal/mol
23,TGGTTCACGTGAACTG,0.43 kcal/mol

row,Sequence,relative binding free energy
1,GATTACACGTGGGGCA,0.17 kcal/mol
2,AGTCGCACGTGGGTTG,-0.11 kcal/mol
3,GTCTACACGTGTATGT,0.25 kcal/mol
4,ATGGTCACGTGTGTGA,0.11 kcal/mol
5,GAGGGCACGTGTCATT,0.09 kcal/mol
6,GTCTACACGTGCGGTG,0.05 kcal/mol
7,GTGGTCACGTGTTAAT,0.24 kcal/mol
8,TGTCCCACGTGAGGTT,0.29 kcal/mol
9,GAGTCCACGTGTGAGG,0.2 kcal/mol
10,AAAATCACGTGGGATT,0.12 kcal/mol
11,TTTGCCACGTGCGTGG,-0.09 kcal/mol
12,AATTGCACGTGTGGAG,-0.03 kcal/mol
13,CCTGTCACGTGGATGT,0.06 kcal/mol
14,GGAGTCACGTGCAGGT,0.13 kcal/mol
15,GGCAGCACGTGTCGGT,0.23 kcal/mol
16,GGAGACACGTGGGGGT,-0.04 kcal/mol
17,GCGGGCACGTGGCGCG,-0.16 kcal/mol
18,GTTGGCACGTGTCATA,-0.09 kcal/mol
19,CGAGGCACGTGGAGGG,-0.13 kcal/mol
20,ATCAGCACGTGGGGTT,-0.25 kcal/mol
21,TTTTTCACGTGCCGTT,0.24 kcal/mol
22,CGGAGCACGTGAGGAT,0.21 kcal/mol
23,GATTACACGTGTTGGT,0.22 kcal/mol

row,Sequence,relative binding free energy
1,ATAGGCACGTGGGCGC,-0.22 kcal/mol
2,AGGGCCACGTGATTGG,0.04 kcal/mol
3,AGGTACACGTGGGTAT,0 kcal/mol
4,GCCTTCACGTGGGGTT,0.26 kcal/mol
5,TCTGTCACGTGATTTC,0.46 kcal/mol
6,GTTCGCACGTGATTTG,0.16 kcal/mol
7,GGTGACACGTGGTTTA,0.05 kcal/mol
8,AATCTCACGTGTGTTG,0.2 kcal/mol
9,AGAATCACGTGTGTAG,0.23 kcal/mol
10,AATTGCACGTGGCAGG,-0.04 kcal/mol
11,GGTCTCACGTGGGTTC,0.26 kcal/mol
12,AAGAGCACGTGTGGAG,-0.15 kcal/mol
13,GTCAGCACGTGTGTTT,-0.13 kcal/mol
14,AGTTGCACGTGTTTGG,0.02 kcal/mol
15,TGTCACACGTGCGGTG,-0.08 kcal/mol
16,GATATCACGTGTTGGA,0.15 kcal/mol
17,TTTTGCACGTGTATGG,0.09 kcal/mol
18,CTTTTCACGTGGAATG,0.29 kcal/mol
19,ATGTTCACGTGAGTGC,0.19 kcal/mol
20,AGAAACACGTGTTGGG,0.01 kcal/mol
21,TTGCGCACGTGGTAAT,-0.11 kcal/mol
22,CGGAGCACGTGCTGGG,-0.25 kcal/mol
23,ATTAACACGTGTCGTG,-0.14 kcal/mol

row,Sequence,relative binding free energy
1,ACGTGCACGTGGTTTA,-0.23 kcal/mol
2,GTTGTCACGTGGCGAG,0.14 kcal/mol
3,GTCATCACGTGTGTAG,0.08 kcal/mol
4,CATTGCACGTGTGAGT,0.15 kcal/mol
5,TAGGGCACGTGTTGTC,-0.1 kcal/mol
6,GTGTTCACGTGCAAAG,0.45 kcal/mol
7,TTGTTCACGTGGTCGT,0.13 kcal/mol
8,GGGTCCACGTGGAGGA,0.04 kcal/mol
9,CGTGGCACGTGGTACT,-0.23 kcal/mol
10,AAGAGCACGTGTGCGG,-0.19 kcal/mol
11,TATTCCACGTGGGATG,-0.16 kcal/mol
12,TTGGACACGTGGAAAT,0.08 kcal/mol
13,AGTATCACGTGTAGCG,0.1 kcal/mol
14,GTGATCACGTGTTATT,0.15 kcal/mol
15,GTCTGCACGTGCGTTT,-0.03 kcal/mol
16,TTTGGCACGTGGGTTC,-0.15 kcal/mol
17,GGTAGCACGTGATGGA,-0.05 kcal/mol
18,AAGTACACGTGAGGTA,0.24 kcal/mol
19,TTAGACACGTGATCTG,0.06 kcal/mol
20,AGGTTCACGTGTTGGC,0.31 kcal/mol
21,TTACGCACGTGGGTGA,-0.39 kcal/mol
22,CGTTGCACGTGATGTT,0.17 kcal/mol
23,GGGTTCACGTGAGCAT,0.42 kcal/mol
